In PubChem BioAssay AID1030 (National Center for Advancing Translational Sciences (NCATS), 2008):
Among all 220,000 compounds or so, about 16,000 (7.3%) were called active. Inconclusive means that the source gave no clear call. Such entries were picked first, then a sample of the others. The call rests on the fitted dose curve; in most records, active means well fitted inhibition curve with a large enough effect (not every such curve was filed as active); inconclusive means small, poorly fitted or top-dose-only effect, or another doubt; inactive means no such curve, though single readings can be large or run the other way. No potency is given beside an inconclusive call; the fits are too rough.

target: Aldehyde dehydrogenase 1A1 (Homo sapiens) (UniProt P00352); test: qHTS Assay for Inhibitors of Aldehyde Dehydrogenase 1 (ALDH1A1); settings: Purified ALDH1A1, NADH fluorescence, propionaldehyde substrate; series mostly up to 75.3 µM; activity, negative = inhibition: at the top concentration;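 on activity, negative = inhibition: plate controls were no enzyme wells and a reference inhibitor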
Potency means the concentration at half of the fitted maximal effect; tags describe the fitted curve by direction and shape.

Chain of UniProt P00352 (P00352 whole entry, looked up): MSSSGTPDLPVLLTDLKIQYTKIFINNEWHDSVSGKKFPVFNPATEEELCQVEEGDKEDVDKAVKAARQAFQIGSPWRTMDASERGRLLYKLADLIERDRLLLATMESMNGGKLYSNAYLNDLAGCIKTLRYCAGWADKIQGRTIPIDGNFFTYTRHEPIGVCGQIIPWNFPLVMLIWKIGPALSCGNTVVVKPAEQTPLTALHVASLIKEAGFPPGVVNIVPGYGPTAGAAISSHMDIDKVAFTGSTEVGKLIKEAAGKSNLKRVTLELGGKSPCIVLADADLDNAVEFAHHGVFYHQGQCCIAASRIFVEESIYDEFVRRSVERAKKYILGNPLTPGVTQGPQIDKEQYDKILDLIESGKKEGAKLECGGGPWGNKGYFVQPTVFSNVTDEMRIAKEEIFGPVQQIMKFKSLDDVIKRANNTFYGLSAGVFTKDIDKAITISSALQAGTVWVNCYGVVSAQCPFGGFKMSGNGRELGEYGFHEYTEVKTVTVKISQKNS

Row | SMILES | Potency | activity, negative = inhibition
1 | COCCNC(=O)c1ccc(C2SCC(=O)N2Cc2ccco2)cc1 (centres undefined) | active: 10 µM | 
2 | Cc1cnc(NC(=O)C(C)N2CCN(C)CC2)s1 (centres undefined) | inconclusive [inhibitor, single point] | 
3 | O=C(Oc1ccccc1Cl)c1ccc(N2CCOCC2)c([N+](=O)[O-])c1 | inconclusive [inhibitor, single point] | 
4 | CCC(CC)C(=O)N=C1SC2CS(=O)(=O)CC2N1CCc1ccc(OC)cc1 (centres undefined) | inconclusive [inhibitor, partial curve] | 
5 | Nc1c(C(=O)NCc2ccc(F)cc2)c2nc3ccccc3nc2n1CCCN1CCOCC1 | inconclusive [inhibitor, partial curve] | 
6 | O=C(Cc1ccccc1)Nc1cccc(C(=O)N/N=C/c2ccco2)c1 | inconclusive [inhibitor, single point] | 
7 | Cc1ccc(CC2SC(N)=NC2=O)cc1 (centres undefined) |  | inactive: -3.33%
8 | Cc1ccc(-n2cc(CN3CCCN(C=O)CC3)c(-c3ccc(F)cc3)n2)cc1 | inconclusive [inhibitor, single point] | 
9 | Cc1ccc(-c2cccc(CN3CCN(C(C)C)C(CCO)C3)c2)o1 (centres undefined) | inconclusive [inhibitor, single point] | 
10 | CCOc1cc(/C=N/Nc2nc(N3CCCC3)nc(N3CCCC3)n2)ccc1O |  | inactive: 1.23%
11 | COC(=O)Cc1cc(=O)n2[nH]c(C)cc2n1 | inconclusive [inhibitor, single point] | 
12 | CSCCNCc1cn(-c2ccc(F)cc2F)nc1-c1ccccc1C | active: 35.5 µM | 
13 | c1ccc(Oc2nc(NC3CCCCC3)c3[nH]cnc3n2)cc1 | inconclusive [inhibitor, single point] | 
14 | CCc1cccc(C)c1NC(=O)CSc1nc2ccc(N3C(=O)c4ccccc4C3=O)cc2s1 |  | inactive: 4.04%
15 | COCCCNC(=S)NC(=O)c1ccccc1 |  | inactive: -15.6%
16 | Cc1cc(=O)[nH]c(SCc2nc3ccc([N+](=O)[O-])cc3[nH]2)n1 | inconclusive [inhibitor, single point] | 
17 | CCOC(=O)CSc1nnc(NC(=O)c2cccc(S(=O)(=O)N3CCCCCC3)c2)s1 | inconclusive [inhibitor, single point] | 
18 | COc1cc(/C=C2\COC/C(=C\c3ccc(O)c(OC)c3)C2=O)ccc1O | inconclusive [inhibitor, single point] | 
19 | Cc1cccc(C(C)(C)C)c1OCCOCCN1CCCC1 | inconclusive [inhibitor, single point] | 
20 | CCc1ccc(S(=O)(=O)NCCc2cn3ccsc3n2)s1 | inconclusive [inhibitor, partial curve] | 
21 | Cc1cc(=O)oc2cc(OCC#N)ccc12 | inconclusive [inhibitor, partial curve] | 
22 | O=C(CSc1ccc(-c2cccnc2)nn1)c1ccc([N+](=O)[O-])cc1 | inconclusive [inhibitor, single point] | 
23 | Cc1ccc(NC(NC(=O)Cc2ccccc2)C(Cl)(Cl)Cl)cc1 (centres undefined) |  | inactive: -7.7%
24 | Cc1cc(C)c2[nH]c(O)c(N=NC(=S)NCC3CCCO3)c2c1 (centres undefined) | active: 0.0794 µM | 
25 | COc1cc2c(cc1NCc1ccccn1)oc1ccccc12 | inconclusive [inhibitor, single point] | 

Row | SMILES | Potency | activity, negative = inhibition
26 | COc1cccc(NC(=O)CN2CCN(c3ccc(F)cc3)CC2)c1 | inconclusive [inhibitor, single point] | 
27 | CCOc1ccccc1-n1c(SCC(=O)N2CCCc3ccccc32)nnc1-c1cccnc1 | active: 12.6 µM | 
28 | NNC(=O)c1csc(-c2cccc(C(F)(F)F)c2)n1 | active: 4.47 µM | 
29 | C/C(CC(=O)Nc1cccc(C(F)(F)F)c1)=N\NC(=O)Cc1ccccc1 | inconclusive [inhibitor, partial curve] | 
30 | CCCOc1ccc2c3c(c(=O)oc2c1OCCC)CCCC3 | inconclusive [inhibitor, partial curve] | 
31 | C=CCOc1c(Br)cc(CNc2ccc(NC(=O)C(C)C)c(OC)c2)cc1OCC | inconclusive [inhibitor, single point] | 
32 | COc1ccc(OCCNS(=O)(=O)c2ccccc2)cc1 | inconclusive [inhibitor, single point] | 
33 | Cc1ccc(NC(=O)C2c3ccccc3Oc3ccccc32)nc1 |  | inactive: -7.53%
34 | Oc1ccc(N2CCN(Cc3ccc(OCCCN4CCCCC4)cc3)CC2)cc1 | inconclusive [inhibitor, single point] | 
35 | CCCCn1c(Cc2ccccc2)n[nH]c1=S | active: 14.1 µM | 
36 | CCOc1nc(-c2ccc(C)cc2)ccc1-c1noc(COC)n1 | inconclusive [inhibitor, partial curve] | 
37 | CC(=O)N1CCN(S(=O)(=O)c2ccc(S(=O)(=O)NCC(C)C)cc2)CC1 |  | inactive: 4.03%
38 | CCN1CCN(C(=O)c2nn(-c3ccccc3)c(=O)c3ccccc23)CC1 | inconclusive [inhibitor, partial curve] | 
39 | CCN(CC(=O)Nc1ccc2c(c1)OCCO2)Cc1cc(=O)n2ccsc2n1 | active: 20 µM | 
40 | O=C(Nc1ccc2oc(-c3cccc(F)c3)nc2c1)c1ccccc1F | inconclusive [inhibitor, single point] | 
41 | Cc1ccc(S(=O)(=O)N(C(=O)c2ccncc2)c2ccc3oc4c(c3c2)CCCC4)cc1[N+](=O)[O-] | inconclusive [inhibitor, full curve] | 
42 | O=C(NCc1cccnc1)c1ccc(Cl)c(S(=O)(=O)N2CCCCCC2)c1 |  | inactive: -6.18%
43 | CC1(C)COC(c2ccc(F)c([N+](=O)[O-])c2)=N1 |  | inactive: 2.05%
44 | CC(C)OC(=O)/C(C#N)=C/c1cn(Cc2ccccc2)c2ccccc12 | inconclusive [inhibitor, single point] | 
45 | CCOC(=O)C1(CCCc2ccccc2)CCN(C(=O)CN2C(=O)CSC2=O)CC1 | inconclusive [inhibitor, single point] | 
46 | CCOC(=O)CN(c1cc([N+](=O)[O-])ccc1OC)S(C)(=O)=O |  | inactive: -1.74%
47 | Nn1c(Cc2ccccc2F)nnc1SCCOc1ccc(Cl)cc1 | inconclusive [inhibitor, single point] | 
48 | Cc1c(N=Cc2ccc(O)c(Br)c2)cccc1[N+](=O)[O-] | active: 22.4 µM | 
49 | CCCCOC(=O)Nc1ccc(C(C)C)cc1 |  | inactive: 2.1%
50 | COc1ccc(CC(=O)Nc2ccc(N3CCN(c4ccc(OC)cc4)CC3)c(C#N)c2)cc1 | inconclusive [inhibitor, partial curve] | 

Row | SMILES | Potency | activity, negative = inhibition
51 | COc1cccc(CNc2ccc([N+](=O)[O-])cc2Cl)c1O |  | inactive: -33.6%
52 | CCCCn1c(SCC(=O)c2ccccc2)nc2ccsc2c1=O | active: 7.08 µM | 
53 | CCCc1cc(=O)[nH]c(SC(CC)C(=O)Nc2ccccc2C#N)n1 (centres undefined) |  | inactive: 2.83%
54 | Cc1cccc(NC(=S)N(CCCN2CCOCC2)Cc2cn(C)c3ccccc23)c1 | inconclusive [inhibitor, single point] | 
55 | CCC(C)C(=O)Nc1c2c(nc3c1CCC3)CCCC2 (centres undefined) |  | inactive: 3.81%
56 | O=C(NCC1CCCO1)c1cccnc1NCc1ccc(F)cc1 (centres undefined) | inconclusive [inhibitor, single point] | 
57 | Cc1ccc(-n2c(C)cc(/C=N\NC(=O)CC(=O)NC(C)C)c2C)cc1 | inconclusive [inhibitor, single point] | 
58 | CCN(CC)S(=O)(=O)c1cccc(C(=O)/C=C2/N(C)c3ccccc3C2(C)C)c1 |  | inactive: -9.88%
59 | CNCc1ccccc1Sc1ccc(O)c(O)c1 | active: 0.562 µM | 
60 | Cc1ccc(-c2c(C#N)c(N)n(-c3ccc(C)cc3)c(=O)c2C#N)cc1 | inconclusive [inhibitor, partial curve] | 
61 | O=C(c1cccc(COc2ccc(Cl)cc2Cl)c1)N1CCN(c2ccccn2)CC1 | inconclusive [inhibitor, partial curve] | 
62 | O=C(NNS(=O)(=O)c1ccc2ccccc2c1)C1CCN(Cc2ccccc2)CC1 |  | inactive: -0.536%
63 | c1csc(-c2nn3c(C4COc5ccccc5O4)nnc3s2)c1 (centres undefined) | active: 8.91 µM | 
64 | OCc1cn(-c2ccccc2)nc1-c1ccc(-c2nn(-c3ccccc3)cc2CO)cc1 | inconclusive [inhibitor, partial curve] | 
65 | Clc1ccc(CC[C@H](Cn2ccnc2)Sc2c(Cl)cccc2Cl)cc1 | inconclusive [inhibitor, partial curve] | 
66 | N#CCCn1c(=O)c(-c2ccccc2)nc2cnc(Oc3cccc(Cl)c3)nc21 | inconclusive [inhibitor, partial curve] | 
67 | CC1(C)NC(=O)N(CCCOc2ccc(Br)cc2Cl)C1=O | inconclusive [inhibitor, partial curve] | 
68 | COCCSc1nnc(NC(=O)C2CCCO2)s1 (centres undefined) |  | inactive: 5%
69 | CNC(=S)Nc1ccc(N2CCN(c3ccc(C(F)(F)F)cn3)CC2)nc1 |  | inactive: 4.29%
70 | COC(=O)c1sccc1NC(=O)CSc1cc(Cl)ccc1Cl | inconclusive [inhibitor, partial curve] | 
71 | COc1ccc(OCC(=O)Nc2nnc(-c3ccco3)s2)cc1 | active: 22.4 µM | 
72 | CCOC(=O)C(CC)/C(C)=N/NC(=O)c1ccc([N+](=O)[O-])cc1 (centres undefined) | inconclusive [inhibitor, single point] | 
73 | Cc1[nH]n(-c2ccccc2)c(=O)c1C(C[N+](=O)[O-])c1ccc(Br)cc1 (centres undefined) | active: 22.4 µM | 
74 | CCOc1ccc(C(=O)N(Cc2ccc(N(C)C)cc2)C2CCS(=O)(=O)C2)cc1 (centres undefined) | active: 12.6 µM | 
